Reference: patent US20210213145A1 (TAYU HUAXIA BIOTECH MEDICAL GROUP, published 2021)

Biological target: hPD-L1 (form in the Octet assay of Example 3 not stated) (human, UniProt Q9NZQ7 fragment, limits assumed)
Experiment: BLI, Fortebio Octet; format not stated

Sequence of UniProt Q9NZQ7 (Q9NZQ7 19-238 limits assumed): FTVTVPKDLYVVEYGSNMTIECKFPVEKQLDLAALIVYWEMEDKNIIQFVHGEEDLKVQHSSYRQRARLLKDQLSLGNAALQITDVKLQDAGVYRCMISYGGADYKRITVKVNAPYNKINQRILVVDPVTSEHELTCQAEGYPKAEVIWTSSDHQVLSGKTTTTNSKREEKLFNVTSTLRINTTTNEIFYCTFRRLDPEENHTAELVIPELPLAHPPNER

Binder | Kd | koff | kon
anti-PD-L1 scFv-hFc Wt (Fc fusion, scFv (VH-linker-VL), then hinge and wild type human IgG1 CH2-CH3; Made in ExPi 293 cells and purified on protein G; also called hPD-L1 scFv-hFc wt; scFv-HuFc(Wt)) QVQLVQSGAEVKKPGASVKVSCKASGFNIKDTYMYWVRQAPGQGLEWMGRIDPANDNTKYAQKFQGRVTITADTSTSTAYMELSSLRSEDTAVYYCARAKNLLNYFDYWGQGTLVTVSSGSTSGSGKPGSGEGSTKGDIQMTQSPSSLSASVGDRVTITCRASQEISGYLSWLQQKPGKAPKRLIYATSTLQSGVPSRFSGSRSGTDYTLTISSLQPEDFATYYCLQYAIYPLTFGQGTKLEIKR[human IgG1 Fc skipped] | 0.348 nM | 0.000243 s⁻¹ | 698000 M⁻¹ s⁻¹
anti-PD-L1 scFv-hFc Mt (Fc fusion, As scFv-hFc Wt, with H310A and H435Q in CH2-CH3; also called hPD-L1 scFv-hFc Mt; scFv-HuFc(Mt)) QVQLVQSGAEVKKPGASVKVSCKASGFNIKDTYMYWVRQAPGQGLEWMGRIDPANDNTKYAQKFQGRVTITADTSTSTAYMELSSLRSEDTAVYYCARAKNLLNYFDYWGQGTLVTVSSGSTSGSGKPGSGEGSTKGDIQMTQSPSSLSASVGDRVTITCRASQEISGYLSWLQQKPGKAPKRLIYATSTLQSGVPSRFSGSRSGTDYTLTISSLQPEDFATYYCLQYAIYPLTFGQGTKLEIKR[human IgG1 Fc with changes skipped] | 0.232 nM | 0.000385 s⁻¹ | 1.66e+06 M⁻¹ s⁻¹
